Assay results published in PubChem BioAssay AID1508642 (National Center for Advancing Translational Sciences (NCATS), 2021).
Out of some 43,000 compounds screened, about 200 (0.47%) were called active. This list was built around the results that the source calls inconclusive (neither active nor inactive); the mix of calls is not that of the screen. Calls follow the shape of the dose curve; as a rule, active = well fitted cell-killing curve with a large enough effect; inconclusive = small, poorly fitted or top-dose-only effect, or effect the other way; inactive = flat fitted curve, though single readings scatter. Where the call is inconclusive, the potency comes from a doubtful curve fit.

Test: Cell viability qHTS assay in S16 Pmp22-F2sN cells; also: nearly all actives have a fitted effect of over 65% in size
Conditions: S16 Pmp22-F2sN Schwann cells (luciferase reporters placed in the Pmp22 gene) viability, CellTiter-Glo, 24 h; activity change, negative = cytotoxicity: at 57.5 µM (top of the series)
How it was run: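 CellTiter-Glo counter-screen, qHTS, 1536-well. Cells: S16(c9) Pmp22-F2sN, 500-1,000/well in DMEM + 10% FBS. Cpd 23 nL pin transfer, 24 h, 37C/5% CO2. Read: luminescence, CCD imager.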
% is scaled to controls: 0 for no effect and ±100 for the full control effect; potency is read from the fitted curve at half-maximal effect; tags tell the direction and shape of the fitted curve.

| SMILES | Potency | activity change, negative = cytotoxicity |
| --- | --- | --- |
| COc1ccc(Cl)cc1NC(=O)CSC1=Nc2ccccc2C2=NC(CC(=O)NC3CCCCC3)C(=O)N12 (centres undefined) | inconclusive: 39.8 µM [cytotoxic, single point] |  |
| COc1cc(OC)c(N(C)C(=O)C2CCCN(c3ncnc4c3nc3n4CCCCC3)C2)cc1Cl (centres undefined) | inconclusive: 35.5 µM [cytotoxic, single point] |  |
| COc1ccc(NC(=O)C2CCN(c3nc4ccccc4nc3C(F)(F)F)CC2)cc1 | inconclusive: 28.2 µM [rising, partial curve, poor fit] |  |
| COCCCNC(=O)c1c(NC(=O)c2cc(=O)c3ccccc3o2)sc2c1CCCC2 | inconclusive: 39.8 µM [rising, single point] |  |
| Cc1ccc(F)cc1NC(=O)c1ccc(Cn2nc(N3CCN(c4ccccc4)CC3)ccc2=O)o1 | inconclusive: 20 µM [cytotoxic, single point] |  |
| O=C(Cn1c(-c2cccs2)cc2cc(F)ccc21)NCCCN1CCN(c2ccccc2F)CC1 | inconclusive: 25.1 µM [cytotoxic, single point] |  |
| CCOc1ccc2oc(=O)cc(CN3CCN(Cc4ccc(F)cc4)CC3)c2c1 | inconclusive: 25.1 µM [cytotoxic, partial curve, poor fit] |  |
| CCC(C(=O)Nc1cc(OC)ccc1OC)n1c(=O)c(C(F)(F)F)nc2ccccc21 (centres undefined) | inconclusive: 39.8 µM [cytotoxic, single point] |  |
| Cc1nc2ccc(S(=O)(=O)NC(C(=O)N3CCN(c4ccc(Cl)cc4)CC3)C(C)C)cc2s1 (centres undefined) |  | inactive: -7.16% |
| O=c1n(Cc2ccc(Cl)cc2)c2ccccc2c2nc(-c3ccccc3)nn12 |  | inactive: 9.07% |
| O=S(=O)(c1ccc2[nH]c3c(c2c1)CCCC3)N1CCN(c2cccc(C(F)(F)F)c2)CC1 | inconclusive: 12.6 µM [cytotoxic, partial curve] |  |
| CCOC(=O)c1noc2ncnc(N3CCN(c4cccc(Cl)c4)CC3)c12 |  | inactive: -3.81% |
| Cc1ccc(-c2nc(S(=O)(=O)c3ccc(C)cc3)c(SCC(=O)Nc3ccc(F)cc3)o2)cc1 | inconclusive: 39.8 µM [cytotoxic, partial curve, poor fit] |  |
| COc1cccc(C2=C(C(C)=O)Sc3nnc(C4CCCCC4)n3N2C(C)=O)c1 | inconclusive: 31.6 µM [cytotoxic, single point] |  |
| CC1CCCCN1CCCNC(=O)c1ccc2c(c1)sc1nc(-c3ccc(F)cc3)cn12 (centres undefined) | inconclusive: 39.8 µM [cytotoxic, single point] |  |
| CCc1ccc(NC(=O)CSc2nc(-c3ccccc3Cl)nc3c2Cc2c(CO)cnc(C)c2O3)cc1 | inconclusive: 17.8 µM [cytotoxic, single point] |  |
| CC(C)NC(=O)c1ccc(-n2c(-c3ccccc3)cc3c2CCCC3)cc1 | inconclusive: 25.1 µM [rising, single point] |  |
| O=C(COc1ccc(Br)cc1Cl)Nc1ncn[nH]1 |  | inactive: -1.85% |
| CCCCCn1c(=O)[nH]c2cc(C(=O)NCc3ccc(Cl)cc3)ccc2c1=O |  | inactive: 1.87% |
| Cc1cccc(-c2nc3scc(CCNS(=O)(=O)c4ccc(Oc5ccccc5)cc4)n3n2)c1 | inconclusive: 15.8 µM [cytotoxic, partial curve, poor fit] |  |

| SMILES | Potency | activity change, negative = cytotoxicity |
| --- | --- | --- |
| O=C(O)c1ccc(Nc2nc3ccccc3n3cnnc23)cc1 | inconclusive: 39.8 µM [cytotoxic, single point] |  |
| CC(=O)c1ccc(NC(=O)C2Cc3ccccc3N2C(=O)c2ccccc2)cc1 (centres undefined) | inconclusive: 0.501 µM [cytotoxic, full curve, poor fit] |  |
| CN(C)S(=O)(=O)c1ccc2c(c1)N(CC(=O)NCc1ccc(F)cc1)C(=O)CS2 | inconclusive: 44.7 µM [rising, partial curve, poor fit] |  |
| Cc1ccc2c(c1)c(=O)c1ccccc1n2CCCC(=O)Nc1cc(Cl)ccc1C | inconclusive: 35.5 µM [cytotoxic, single point] |  |
| Cc1cccc(CCNc2ncnc3onc(-c4ccc(Cl)cc4)c23)c1 |  | inactive: -18.8% |
| CCc1ccc(NC(=O)c2ccc(F)c(S(=O)(=O)N3CCC4(CC3)OCCO4)c2)cc1 |  | inactive: -17.3% |
| Cc1ccc(S(=O)(=O)C(CNC(=O)c2ccc(F)c(F)c2)c2ccco2)cc1 (centres undefined) | inconclusive: 0.0316 µM [rising, full curve, poor fit] |  |
| CCC(=O)C1=C(c2ccc(Cl)cc2)N(C(=O)CC)n2c(C)nnc2S1 | inconclusive: 39.8 µM [cytotoxic, single point] |  |
| CCN(CC)CCOC(=O)c1ccc(NC(=O)c2nn(C)c3c2COc2ccccc2-3)cc1 | inconclusive: 39.8 µM [cytotoxic, single point] |  |
| CC1CCN(S(=O)(=O)c2nnc(NC(=O)c3ccc(C(C)C)cc3)s2)CC1 | inconclusive: 39.8 µM [cytotoxic, partial curve, poor fit] |  |
| Cc1cc(C)cc(NC(=O)c2ccc3c(c2)nnn3C2CCCC2)c1 | active: 11.2 µM |  |
| Cc1cc(C(F)F)n2nc(C(=O)Nc3ccc(C(C)C)cc3)nc2n1 | inconclusive: 25.1 µM [rising, single point] |  |
| COc1ccc(CNS(=O)(=O)c2cc3c4c(c2)CCN4C(=O)CC3)cc1 | inconclusive: 15.8 µM [cytotoxic, partial curve, poor fit] |  |
| CC(=O)Nc1ccc(S(=O)(=O)N2CCC(c3nnc(-c4ccc(C)cc4)o3)CC2)cc1 | inconclusive: 39.8 µM [cytotoxic, single point] |  |
| CCN(CC)C(=O)c1sc2c(c1C)c(=O)n(-c1ccc(Cl)c(Cl)c1)c(=O)n2Cc1cc(=O)n2ccccc2n1 | inconclusive: 3.55 µM [cytotoxic, partial curve, poor fit] |  |
| O=C(NCc1ccc2c(c1)CCN2C(=O)c1ccccc1)c1ccccc1 | inconclusive: 2.24 µM [cytotoxic, single point] |  |
| O=C1CCCc2cc(S(=O)(=O)N3CCCC(C(=O)Nc4ccc(F)c(Cl)c4)C3)ccc2N1 (centres undefined) | inconclusive: 25.1 µM [cytotoxic, partial curve, poor fit] |  |
| CSc1cccc(Nc2cc(C(=O)NCCc3ccc(Cl)cc3)c3ccccc3n2)c1 |  | inactive: -25.1% |
| Cc1cc(N2CCCCC2)nc2ccc(NC(=O)/C=C/c3ccc(OC(C)C)cc3)cc12 | inconclusive: 39.8 µM [cytotoxic, single point] |  |
| COc1ccc(NC(=O)Cn2c(=O)n(-c3ccccc3)c(=O)c3c4c(sc32)CCCC4)c(OC)c1 |  | inactive: 17.3% |

| SMILES | Potency | activity change, negative = cytotoxicity |
| --- | --- | --- |
| CC(C)Oc1ccc(CNS(=O)(=O)c2ccc3c(c2)C(C)(C)C(=O)N3C)cc1 | inconclusive: 1.12 µM [cytotoxic, full curve, poor fit] |  |
| COc1ccc(-c2onc(C)c2C)cc1S(=O)(=O)NCC(C)c1ccccc1 (centres undefined) | inconclusive: 31.6 µM [cytotoxic, single point] |  |
| CC(C)Oc1cccc(C(=O)Nc2ccc3oc(-c4cccc(Cl)c4)nc3c2)c1 | inconclusive: 1.78 µM [rising, full curve, poor fit] |  |
| COc1ccc(OC)c(CNS(=O)(=O)c2ccc3[nH]c4c(c3c2)CCCCC4)c1 |  | inactive: -18.3% |
| Cc1oc2ccc(O)c(CN3CCCCCC3)c2c1C(=O)Nc1cccc(Cl)c1C | inconclusive: 39.8 µM [cytotoxic, single point] |  |
| N#Cc1c[nH]n2c(NC3CCCCC3)c(-c3ccccc3F)nc12 | inconclusive: 22.4 µM [cytotoxic, partial curve, poor fit] |  |
| CCN(CC)CCCNC(=O)c1ccc2c(c1)N(Cc1c(F)cccc1Cl)C(=O)c1ccccc1S2 | inconclusive: 39.8 µM [cytotoxic, single point] |  |
| Fc1ccc(Nc2nc3nonc3nc2Nc2cccc(C(F)(F)F)c2)cc1 | active: 8.91 µM |  |
| Cc1sc2c(c1C)c(=O)n(-c1ccccc1)c(=O)n2CC(=O)c1ccc(Cl)cc1 | inconclusive: 17.8 µM [cytotoxic, partial curve, poor fit] |  |
| Cc1ccc(-c2nc3ccccc3o2)cc1NC(=O)c1cccc2c(Cl)cccc12 | inconclusive: 35.5 µM [cytotoxic, single point] |  |
| Cc1cccc(Nc2nc(-c3ccccc3)c3cc(C)ccc3n2)c1 | inconclusive: 4.47 µM [rising, full curve, poor fit] |  |
| Cc1ccc(C(=O)Nc2ccc3c(c2)N(C)C(=O)c2ccccc2S3)cc1 | inconclusive: 8.91 µM [cytotoxic, partial curve] |  |
| CCc1ccc(NC(=O)c2cc(S(=O)(=O)N3CCCC3)ccc2F)cc1 | inconclusive: 31.6 µM [cytotoxic, single point] |  |
| CCC1CCCCN1CCCNC(=O)c1ccc2c(c1)N(Cc1ccccc1F)C(=O)c1ccccc1S2(=O)=O (centres undefined) | inconclusive: 39.8 µM [rising, partial curve, poor fit] |  |
| CCOc1ccc(NC(=O)CN(Cc2ccccc2)S(=O)(=O)c2ccc(Cl)cc2)cc1 | inconclusive: 28.2 µM [cytotoxic, partial curve, poor fit] |  |
| Cc1cc(C)cc(NS(=O)(=O)c2ccc3c(c2)OCC(C(=O)N2CCCC2)O3)c1 (centres undefined) | inconclusive: 28.2 µM [cytotoxic, partial curve, poor fit] |  |
| COc1ccc(NC(=O)CSc2c3c(nc4ccc(Cl)cc24)CCCC3)cc1Cl | inconclusive: 25.1 µM [cytotoxic, single point] |  |
| CCOc1ccc(C2C(C(=O)Nc3ccc(OC)cc3)=C(C)Nc3nc(SCc4ccc(Cl)cc4)nn32)cc1 (centres undefined) | inconclusive: 1 µM [rising, full curve, poor fit] |  |
| CCN(C(=O)Cn1c(SCC(=O)Nc2ccc(OC)cc2)nc2ccccc21)c1cccc(C)c1 |  | inactive: -16.4% |
